# Measured values: publication PMC4336329 (PLoS ONE, 2015)
# Hit rate of the full screen: of about 310,000 compounds, about 14,000 (4.5%) showed an effect of 50% or more. Effects have a minus sign here. This is one part of the list.
# Target: human ether-à-go-go-related gene (hERG) potassium channel (human, UniProt Q12809)
# Assay: primary screen, population patch clamp on CHO cells stably expressing hERG
# 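Note: peak tail current of the secondary pulse compared with the same well before compound.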
# human ether-à-go-go-related gene (hERG) potassium channel, sequence (Q12809 whole entry, looked up): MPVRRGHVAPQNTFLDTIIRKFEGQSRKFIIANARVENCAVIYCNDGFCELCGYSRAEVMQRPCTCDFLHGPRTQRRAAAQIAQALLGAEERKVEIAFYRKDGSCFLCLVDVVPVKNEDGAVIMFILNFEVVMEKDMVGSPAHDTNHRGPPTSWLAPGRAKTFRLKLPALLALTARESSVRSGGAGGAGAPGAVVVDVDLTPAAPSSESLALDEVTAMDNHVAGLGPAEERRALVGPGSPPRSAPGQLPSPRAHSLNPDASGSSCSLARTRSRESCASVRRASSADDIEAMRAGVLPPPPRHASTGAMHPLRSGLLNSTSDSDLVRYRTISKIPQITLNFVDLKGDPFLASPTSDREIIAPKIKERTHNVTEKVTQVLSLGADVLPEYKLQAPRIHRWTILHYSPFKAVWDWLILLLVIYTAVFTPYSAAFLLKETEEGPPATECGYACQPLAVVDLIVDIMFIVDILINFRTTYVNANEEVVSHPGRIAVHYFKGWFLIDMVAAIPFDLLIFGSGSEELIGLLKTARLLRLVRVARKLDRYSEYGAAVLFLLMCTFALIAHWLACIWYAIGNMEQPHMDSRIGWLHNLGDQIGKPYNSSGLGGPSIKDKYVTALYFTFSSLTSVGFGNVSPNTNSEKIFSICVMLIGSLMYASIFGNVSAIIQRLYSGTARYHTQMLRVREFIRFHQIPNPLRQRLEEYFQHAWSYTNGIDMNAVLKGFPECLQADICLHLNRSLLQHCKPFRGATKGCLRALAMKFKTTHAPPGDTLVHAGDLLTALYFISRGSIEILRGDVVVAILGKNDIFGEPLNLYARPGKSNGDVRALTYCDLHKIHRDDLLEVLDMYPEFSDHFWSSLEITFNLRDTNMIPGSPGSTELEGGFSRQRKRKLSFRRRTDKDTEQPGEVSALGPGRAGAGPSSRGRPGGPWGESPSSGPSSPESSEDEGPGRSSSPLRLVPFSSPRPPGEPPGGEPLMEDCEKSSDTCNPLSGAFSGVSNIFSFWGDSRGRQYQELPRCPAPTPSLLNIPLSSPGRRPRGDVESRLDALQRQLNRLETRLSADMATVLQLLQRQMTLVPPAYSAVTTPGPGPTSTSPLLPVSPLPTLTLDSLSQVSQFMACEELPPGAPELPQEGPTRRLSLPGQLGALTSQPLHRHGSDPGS
row,SMILES,"hERG current change (%, negative = inhibition) at 10uM"
1,CC(=O)Nc1ccc(-c2nc3c(C)cccc3[nH]2)cc1,6.65%
2,Cc1c(C(=O)Nc2ccc3c(c2)OCO3)sc2nc(-c3ccccc3)cn12,20.4%
3,Cn1cnnc1-c1cccc(NS(=O)(=O)c2ccc(N3CCCC3=O)cc2)c1,9.92%
4,COC(=O)c1c(NC(C)=O)sc(C(=O)Nc2ccccc2C)c1C,16%
5,Cc1ccc(N=C(NO)c2cnccc2C(F)(F)F)c(C)c1,8.93%
6,CCC(C)(C)NC(=O)C(c1ccncc1)N(Cc1ccc(C)cc1)C(=O)c1csnn1 (stereo not shown),-14.1%
7,O=C(c1ccco1)N1CCN(C(=O)C2CC(c3ccccc3F)=NO2)CC1 (stereo not shown),-18.3%
8,CC(=O)c1cc2c(cc1NC(=O)CSc1nc3ccccc3[nH]1)OCO2,-45.3%
9,COc1ccc(N(CC(=O)NCc2ccc(C)cc2)S(=O)(=O)c2c(C)[nH]c(=O)[nH]c2=O)cc1,23.1%
10,CC1CCN(C2CC(=O)N(c3ccccc3)C2=O)CC1 (stereo not shown),8.4%
11,N/C(=N\OC(=O)c1cc(Cl)ccc1Cl)c1ccccn1,-16.5%
12,O=C(CCC1CCCC1)NNC(=O)c1cccc(Cl)c1,9.7%
13,CCCCCC1NC(=O)NC1CCCCCC(=O)O (stereo not shown),2.14%
14,O=C1CCC(N2C(=O)c3ccccc3C2=O)C(=O)N1 (stereo not shown),30.7%
15,COc1ccc2[nH]c(C(=O)O)c(NC(=O)c3cc(OC)c(OC)c(OC)c3)c2c1,17.8%
16,CC1=CC(C)=Nc2ccc(C)cc2N1,1.98%
17,Cc1csc(NC(=O)CSc2nc(=O)cc(N)n2-c2ccc(F)cc2)n1,13.2%
18,COC(=O)C1CCN(c2cc(=O)n(-c3ccc(OC)cc3)c(=O)[nH]2)CC1,9.37%
19,O=C1CNC(=O)/C1=C\c1ccc(O)cc1,11.1%
20,Cc1nc(NCC2CCCO2)nc2c1C(=O)CC(C)(C)C2 (stereo not shown),10.4%
21,Cc1[nH]nc2c1C(C(C)C)C(C#N)=C(N)O2 (stereo not shown),10.3%
22,Cc1noc(C(=O)Nc2sc3c(c2C#N)CCC3)c1Cl,14.1%
23,Cc1ccc(N/C=C(/C#N)c2ccsc2)cc1,-5.02%

row,SMILES,"hERG current change (%, negative = inhibition) at 10uM"
1,O=c1c2ccccc2c(=O)n(Cc2ccccc2)n1Cc1ccccc1,16.8%
2,CCSc1nc(-c2ccc(OC)cc2)n(-c2nc3ccccc3s2)n1,-4.52%
3,O=C(Nc1ccccc1N1CCOCC1)c1ccccc1NS(=O)(=O)c1ccc(F)cc1,0.521%
4,COc1ccc(-c2nc(CS(=O)CC(=O)N3CCc4ccccc4C3)c(C)o2)cc1 (stereo not shown),-19.6%
5,COc1ccc(/C=N/Nc2cc(C)nc(N3CCOCC3)n2)c(OC)c1,18.5%
6,O=C(c1cc(-c2ccccc2O)on1)N1CCCC1,7.79%
7,CCN(CC)S(=O)(=O)c1ccc(N2CCOCC2)c(NC(=O)c2ccc(F)cc2)c1,-72.3%
8,COC(=O)c1ccc(NC(=O)CSCc2ccccc2C)cc1,-24.8%
9,CC(C)CCNC(=O)COc1cccc2c1OC(C)(C)C2,2.83%
10,Cc1ccc(C)c(N(CC(=O)NN=C2CCCCCCC2)S(C)(=O)=O)c1,-5.63%
11,CC(C)=CC(=O)Nc1nnc(-c2ccccc2)s1,-4.28%
12,CC12CCC(=O)N1C(C(=O)Nc1cccc3ccccc13)CS2 (stereo not shown),4.6%
13,Fc1ccccc1NC(=S)NC1CCCC1,14%
14,COc1ccccc1NC(=O)C(CCS(C)(=O)=O)N1C(=O)c2ccccc2C1=O (stereo not shown),14.2%
15,CCSc1nnc(-c2ccccc2NC(=O)CC)c(=O)[nH]1,20.4%
16,COc1ccc(CNC(=O)CN(Cc2ccc(F)cc2)C(=O)c2csnn2)cc1,-70.4%
17,O=C(Cn1cc[n+](CC(=O)c2ccccc2)c1)c1ccccc1.[Br-],0.024%
18,Cc1cc(CNC(=O)CC2C(=O)NCCN2Cc2ccc(-c3ccccc3)cc2)nn1C (stereo not shown),-4.68%
19,CCOC(=O)C12CNC(=O)C(C(=O)OCC)(CNC1=O)C2,22.8%
20,COc1ccc(-c2sc3cc4c(cc3c2C#CC2(O)CCCCC2)OCO4)cc1,14.4%
21,O=C(NCC1CCCO1)C(c1cccs1)N(Cc1ccccc1Cl)C(=O)c1ccc(-c2ccccc2)[nH]1 (stereo not shown),24.2%
22,O=C(c1ccc(Cl)cc1)N1CCC(C(=O)N2CCCc3ccccc32)CC1,-76.4%
23,CCOc1ccc(NC(=O)Cc2ccccc2)cc1,-4.88%

row,SMILES,"hERG current change (%, negative = inhibition) at 10uM"
1,COC(=O)C1=CN(CCCN2CCCC2=O)C=C(C(=O)OC)C1c1cccs1,-25.1%
2,OC1(c2ccc(Br)cc2)CCN(Cc2cccc(Br)c2)CC1,-42.1%
3,O=C(Nc1ccccc1)c1cccc(-c2nnc(-c3ccccc3)o2)c1,4.53%
4,Cc1ccc(NC(=S)NCCSc2ccc(Cl)cc2)cc1,7.21%
5,COC(=O)c1ccc(COc2ccccc2/C=N/NS(=O)(=O)c2ccc(C)cc2)cc1,11.5%
6,CCCCOc1ccccc1NC(=O)c1ccc(=O)[nH]c1,1.28%
7,N#CC1=C(SCc2ccc(C#N)cc2)N=C(N)C(c2nc(-c3ccccc3)cs2)C12CCCCC2 (stereo not shown),12.3%
8,CCOc1ccc(CCNC(=O)c2ccc3c(=O)n4c(nc3c2)CCCCC4)cc1,-16.3%
9,CCc1ccc(NC(=S)Nc2cccc3cnccc23)cc1,-15%
10,Cc1c(O)ccc(/C=N/Nc2nc(-c3cccnc3)nc3ccccc23)c1O,11.1%
11,COc1ccccc1C(=O)Nc1nsc(-c2ccccc2)n1,-49.9%
12,CC(C)NC(=O)c1c(O)c2ccccc2[nH]c1=O,-4.36%
13,Cc1ccsc1C(=O)C1CCCN(Cc2ccccc2O)C1 (stereo not shown),-48.1%
14,O=C1CC(c2ccccc2)CC(O)=C1C=NCc1ccccc1Cl (stereo not shown),-4.3%
15,CCc1nc(SCc2ccc(C(=O)OC)o2)n[nH]1,8.22%
16,COC(=O)c1ccccc1S(=O)(=O)NNC(=O)Nc1ccccc1,23.1%
17,CCCn1c(N)c(C(=O)CSc2ncc(C(F)(F)F)cc2Cl)c(=O)[nH]c1=O,11%
18,Cc1cc(NC(=O)c2ccccc2Cl)no1,19.9%
19,CCN(CC)c1nc(Nc2ccccc2)nc(Oc2ccc(=O)n(C)n2)n1,4.88%
20,Cc1c(N2C(=O)/C(=C\c3cccc4ccccc34)SC2=S)c(=O)n(-c2ccccc2)n1C,-2.86%
21,COc1cc(-c2nnn(CC(=O)NC3CCS(=O)(=O)C3)n2)ccc1OCc1ccccc1 (stereo not shown),-1.41%
22,COc1ccc(COCC(O)CN2CC(C)OC(C)C2)cc1OC.Cl (stereo not shown),11.2%
23,COc1ccc(CCNC(=O)CCN2C(=O)[C@@H]3Cc4ccccc4CN3C2=O)cc1,-28.3%

row,SMILES,"hERG current change (%, negative = inhibition) at 10uM"
1,O=C(CN(Cc1cccs1)C(=O)CSc1nnc(COc2ccccc2)o1)NC1CCCC1,-5.54%
2,O=S(=O)(c1ccc(C(F)(F)F)cc1)N1CCCN(c2ccc(C(F)(F)F)cn2)CC1,5.3%
3,COC(=O)C1CCN(C(=O)COC(=O)C2CCN(S(=O)(=O)c3ccc(C)c(C)c3)CC2)CC1,4.25%
4,Cc1oc(-c2ccccc2F)nc1CSCC(=O)NCc1ccc2c(c1)OCO2,-32%
5,COc1ccc(CN2C(=NC(=O)C3CC3)SC3CS(=O)(=O)CC32)cc1OC (stereo not shown),0.94%
6,O=C1CC(c2cccc(O)c2)Oc2ccccc21 (stereo not shown),0.458%
7,CCSc1nsc(NC(=O)Nc2cccc(OC)c2)n1,-8.43%
8,COc1ccc(C2=C(c3ccc([N+](=O)[O-])cc3)C(=O)OC2)cc1,-6.76%
9,Nc1nc(SCC(=O)NCCCO)nc2sc3c(c12)CCC3,-3.17%
10,O=C(Cc1ccccc1[N+](=O)[O-])Nc1cccc(S(=O)(=O)NC2=NCCCCC2)c1,6.24%
11,Cc1ccccc1CN(CC1CCC(C(=O)O)CC1)C(=S)Nc1ccccc1F (stereo not shown),9.84%
12,Cc1ccccc1OCCC(=O)Nc1cc(S(=O)(=O)N2CCOCC2)ccc1OC(C)C,-12.5%
13,Cn1c(CN2CCCC2)nc2cc(NC(=O)COc3ccccc3)ccc21,-34.1%
14,C=CCn1c(C)cc(C(=O)COC(=O)/C=C/c2cccc(OC)c2)c1C,4.96%
15,CN(C(=O)c1ccoc1)c1ccc2ccccc2c1,-10.5%
16,COc1ccc(-n2c(=S)[nH]c3[nH]ncc3c2=O)cc1,11.3%
17,CCCOc1ccc(C(=O)NCC(C)(C)N2CCOCC2)cc1,-29.8%
18,CCOC(=O)C1(Cc2ccc(Cl)cc2)CCN(C(=O)C2CCCO2)CC1 (stereo not shown),-33.2%
19,Nc1n[nH]c(CO)n1.O=C(O)CO,18.2%
20,O=c1c2ccccc2nc(/C=C/c2ccc(F)cc2)n1-c1ccccn1,7.41%
21,O=C(/C=C/c1ccccc1)NCC1(c2ccccc2)CCOCC1,-9.11%
22,c1nnnn1C12CC3CC(CC(C3)C1)C2,9.79%
